Test results reported in PubChem BioAssay AID686979 (National Center for Advancing Translational Sciences (NCATS), 2013).
Out of some 420,000 compounds screened, about 50,000 (12%) were called active. The shares of active, inactive and inconclusive entries below differ from those in the screen. Calls come from the whole dose curve; as a rule, active = well fitted inhibition curve with a large enough effect; inconclusive = small, poorly fitted or top-dose-only effect; inactive = flat fitted curve, though single readings scatter. No potency is given beside an inconclusive call; the fits are too rough.

test: qHTS for Inhibitors of human tyrosyl-DNA phosphodiesterase 1 (TDP1): qHTS in cells in presence of CPT; details: chicken DT40 Tdp1-/-;hTDP1 cells + 20 nM CPT, ATP luminescence, 48 h; series mostly up to 46.2 µM; note: nearly all actives have a fitted effect of over 55% in size
Method in brief: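 Chicken DT40 Tdp1-/- cells complemented with human TDP1, 400 cells/well, exposed to compounds plus 20 nM camptothecin for at least 48 h at 37 C; viability read as ATP content by CellTiter-Glo luminescence.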
Potency is the fitted concentration of half-maximal effect; tags give direction and shape of the fitted curve.

| SMILES | Potency |
| --- | --- |
| CCC(=O)N1CCc2cc(S(=O)(=O)CCC(=O)Nc3ccc(Cl)c(C(F)(F)F)c3)ccc21 | active: 16.4 µM |
| Cc1ccc(S(=O)(=O)N(C)Cc2ccc(C(=O)NN=C(CC(C)C)CC(C)C)cc2)cc1 | inconclusive [inhibitor, single point] |
| OCCN1CCN(Cc2ccc3c(c2)CN(Cc2cccn2-c2ccccn2)CCO3)CC1 | inactive |
| Cc1ccc(S(=O)(=O)NCC(=O)N(CC2CCCO2)C(C(=O)NCC2CCCO2)C(C)C)cc1 (centres undefined) | inactive |
| CC(C)(C)OC(=O)[C@H](Cc1ccccc1)NC(=O)c1nc[nH]c1C(=O)NC1CCN(C(=O)OC(C)(C)C)CC1 | active: 23.1 µM |
| O=C(c1cnn2c(C(F)F)cc(-c3ccccc3)nc12)N1CCCCC1c1cccnc1 (centres undefined) | active: 14.6 µM |
| CCOc1ccc(C(=O)c2cn(Cc3ccccc3OC)c3cc4c(cc3c2=O)OCCO4)cc1 | inconclusive [inhibitor, single point] |
| CN(C)/C=C(/C(=O)c1ccccc1)S(=O)(=O)c1ccc(Cl)cc1 | inactive |
| CCC(C)[C@H](N)c1nnc(SCC(=O)Nc2cccc(Cl)c2)o1 (some centres undefined) | inactive |
| CCn1c(=O)n(CC(=O)NC2CCCC(C)C2C)c(=O)c2ccccc21 (centres undefined) | inconclusive [inhibitor, single point] |
| Cc1nn(Cc2cccc(C(=O)NC34CC5CC(CC(C5)C3)C4)c2)c(C)c1Br | inconclusive [inhibitor, single point] |
| CCOC(=O)c1cc2c(=O)n3ccccc3nc2n(CCOC)c1=NC(=O)c1ccncc1 | inconclusive [inhibitor, partial curve, poor fit] |
| Cc1ccc(-c2cn3c(n2)CCCC3)cc1 | inconclusive [inhibitor, single point] |
| Cc1ccc(NC(=O)Cn2c(=O)oc3ccccc32)cc1Cl | inconclusive [inhibitor, partial curve, poor fit] |
| O=C(Nc1cccc(C(=O)O)c1)/C(=C\c1ccc2c(c1)OCO2)NC(=O)c1ccccc1 | inactive |
| CN1CCN(C(=O)/C(=C/c2cccc([N+](=O)[O-])c2)NC(=O)c2ccccc2)CC1 | inactive |
| S=c1[nH]nc(-c2ccncc2)n1/N=C/c1cn(-c2ccccc2)nc1-c1ccc(Cl)cc1 | inconclusive [inhibitor, single point] |
| OC(CN1CCCCC1)CN(c1ccccc1)c1ccccc1 (centres undefined) | inconclusive [inhibitor, single point] |
| NC1=Nc2cccc3cccc1c23 | inconclusive [inhibitor, single point] |
